Reference: the supplement of paper PMC4967469

Columns and labels:
Test in all cases: Viability of human cancer cell lines after 72 h of drug (GDSC screen)
[1] = compound: O=C(Nc1ccc(OC(F)(F)F)cc1)c1sccc1NCc1ccnc2ccccc12 [OSI-930]; settings: top dose 10.24 µM
Experimental: (§1)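 Human cancer cell lines in 384-well plates, medium with 10% serum, drug for 72 h over a 256-fold dose range (nine 2-fold or five 4-fold steps up to the top dose). Adherent lines were fixed and stained with the nucleic acid dye Syto60, suspension lines read with resazurin; signal relative to control wells, capped at 0 and 100%. One two-parameter sigmoid per drug and line, fitted in a mixed model over all curves with the slope shared within a line.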

[2] = compound: CCCC(=O)OCc1ccc(OC(=O)/C=C(C)/C=C/C=C(C)/C=C/C2=C(C)CCCC2(C)C)cc1 [VNLG/124]; settings: top dose 5.12 µM; top dose inferred
Experimental: as §1

[3] = compound: O=S(=O)(O)c1ccc2cc(N=Nc3cc(S(=O)(=O)O)c4cccnc4c3O)ccc2c1 [NSC-87877]; settings: top dose 16 µM; top dose inferred
Experimental: as §1

[4] = compound: O=C(/C=C/c1ccc(CN(CCO)CCc2c[nH]c3ccccc23)cc1)NO [LAQ824]; settings: top dose 1.024 µM; top dose inferred
Experimental: as §1

[5] = compound: Cc1c(N)nc([C@H](CC(N)=O)NC[C@H](N)C(N)=O)nc1C(=O)N[C@H](C(=O)N[C@H](C)[C@@H](O)[C@H](C)C(=O)N[C@H](C(=O)NCCc1nc(-c2nc(C(=O)NCCC[S+](C)C)cs2)cs1)[C@@H](C)O)[C@@H](OC1OC(CO)C(O)C(O)C1OC1OC(CO)C(O)C(OC(N)=O)C1O)c1cnc[nH]1 [Bleomycin]
Experimental: as §1

[6] = compound: O=C(Nc1cccc(Nc2ncc(Br)c(NCCc3cnc[nH]3)n2)c1)N1CCCC1 [BX-912]; settings: top dose 10.24 µM; top dose inferred
Experimental: as §1

[7] = compound: Cc1ccc(NC(=O)c2ccc(CN3CCN(C)CC3)cc2)cc1Nc1nc(-c2cccnc2)cs1 [Masitinib]; settings: top dose 20 µM
Experimental: as §1

[8] = compound: CC/C(=C(\c1ccccc1)c1ccc(OCCN(C)C)cc1)c1ccccc1 [Tamoxifen]; settings: top dose 5 µM
Experimental: as §1

[9] = top dose 50 µM, screen: GDSC drug entry 1378, top dose inferred
[10] = top dose 64 µM, screen: GDSC drug entry 190

Row | Cell Line | AUC [1] | IC50 [1] | AUC [2] | IC50 [2] | AUC [3] | IC50 [3] | AUC [4] | IC50 [4] | AUC [5, 9] | IC50 [5, 9] | AUC [5, 10] | IC50 [5, 10] | AUC [6] | IC50 [6] | AUC [7] | IC50 [7] | AUC [8] | IC50 [8]
1 | HPAC (pancreas, adherent) | 0.934 | > 10.2 µM | 0.965 | > 5.12 µM | 0.979 | > 16 µM | 0.294 | 13.1 nM | 0.896 | > 50000 nM | 0.388 | 1740 nM | 0.809 | 8.24 µM | 0.922 | > 20 µM | 0.97 | > 5 µM
2 | GAMG (glioma, adherent) | 0.884 | > 10.2 µM | 0.981 | > 5.12 µM | 0.985 | > 16 µM | 0.402 | 33.9 nM | 0.347 | 1150 nM | 0.173 | 385 nM | 0.755 | 3.62 µM | 0.899 | > 20 µM | 0.98 | > 5 µM
3 | MKN1 (stomach, adherent) | 0.981 | > 10.2 µM | 0.982 | > 5.12 µM | 0.986 | > 16 µM | 0.514 | 70 nM | 0.687 | 10800 nM | 0.238 | 668 nM | 0.905 | > 10.2 µM | 0.958 | > 20 µM | 0.982 | > 5 µM
4 | H2818 (mesothelioma, adherent) | 0.988 | > 10.2 µM | 0.989 | > 5.12 µM | 0.989 | > 16 µM | 0.817 | 595 nM | 0.586 | 5400 nM | 0.701 | 14900 nM | 0.963 | > 10.2 µM | 0.978 | > 20 µM | 0.988 | > 5 µM
5 | KOSC-2 (head and neck, adherent) | 0.985 | > 10.2 µM | 0.98 | > 5.12 µM | 0.984 | > 16 µM | 0.462 | 50.2 nM | 0.287 | 757 nM | 0.909 | > 64000 nM | – | – | 0.98 | > 20 µM | 0.982 | > 5 µM
6 | KYSE-180 (oesophagus, adherent) | 0.983 | > 10.2 µM | 0.944 | > 5.12 µM | 0.93 | > 16 µM | 0.421 | 39.4 nM | 0.444 | 2210 nM | 0.437 | 2720 nM | 0.948 | > 10.2 µM | 0.882 | 19.6 µM | 0.954 | > 5 µM
7 | NCI-H522 (lung adenocarcinoma, adherent) | 0.969 | > 10.2 µM | 0.984 | > 5.12 µM | 0.895 | > 16 µM | 0.256 | 11 nM | 0.718 | 14700 nM | 0.242 | 616 nM | 0.952 | > 10.2 µM | 0.961 | > 20 µM | 0.981 | > 5 µM
8 | KALS-1 (glioma, adherent) | 0.979 | > 10.2 µM | 0.977 | > 5.12 µM | 0.978 | > 16 µM | 0.604 | 137 nM | 0.813 | 40700 nM | 0.625 | 10000 nM | 0.923 | > 10.2 µM | 0.864 | > 20 µM | 0.915 | > 5 µM
9 | SW837 (large intestine, adherent) | 0.969 | > 10.2 µM | 0.977 | > 5.12 µM | 0.983 | > 16 µM | 0.302 | 14.7 nM | 0.858 | > 50000 nM | 0.401 | 1960 nM | 0.903 | > 10.2 µM | 0.972 | > 20 µM | 0.968 | > 5 µM
10 | SW900 (lung squamous cell carcinoma, adherent) | 0.975 | > 10.2 µM | 0.982 | > 5.12 µM | 0.983 | > 16 µM | 0.583 | 113 nM | 0.564 | 4810 nM | 0.832 | 50300 nM | 0.984 | > 10.2 µM | 0.943 | > 20 µM | 0.973 | > 5 µM
11 | ML-1 (thyroid, adherent) | 0.984 | > 10.2 µM | 0.942 | > 5.12 µM | 0.984 | > 16 µM | 0.351 | 22.9 nM | 0.838 | 42200 nM | 0.396 | 1970 nM | 0.835 | 8.42 µM | 0.919 | > 20 µM | 0.982 | > 5 µM
12 | HSC-3 (head and neck, adherent) | 0.979 | > 10.2 µM | 0.987 | > 5.12 µM | 0.969 | > 16 µM | 0.344 | 25.4 nM | 0.072 | < 195 nM | 0.229 | 757 nM | 0.979 | > 10.2 µM | 0.919 | > 20 µM | 0.956 | > 5 µM
13 | KG-1 (acute myeloid leukaemia, suspension) | 0.888 | 9.42 µM | 0.974 | > 5.12 µM | 0.979 | > 16 µM | 0.405 | 36.2 nM | – | – | 0.154 | 405 nM | 0.784 | 3.88 µM | 0.686 | 3.89 µM | 0.974 | > 5 µM
14 | HO-1-N-1 (head and neck, adherent) | 0.983 | > 10.2 µM | 0.984 | > 5.12 µM | 0.989 | > 16 µM | 0.443 | 45.2 nM | 0.199 | 443 nM | 0.541 | 5130 nM | 0.902 | > 10.2 µM | 0.985 | > 20 µM | 0.958 | > 5 µM
15 | COR-L32 (small cell lung carcinoma, suspension) | – | – | – | – | – | – | – | – | 0.911 | > 50000 nM | – | – | – | – | – | – | 0.926 | > 5 µM

IC50 is the fitted dose that halves viability relative to control wells, and lower means more sensitive; fits outside the tested doses are given as limits. AUC, from the same fit, is the share of area under the viability curve across the 256-fold dose range; values near 1 show little effect. For part of these data: The top dose, if marked as inferred, was calculated from the reported fits. For part of these data: Where an entry number is given, a second screen of the drug exists; the two often differ.
